Assays:
[1] = target: T1, tau in paired helical filaments (PHFs) purified from AD brains (human, UniProt P10636-8 2-441, limits assumed, hyperphosphorylated, pT231 among the sites (detected by CP9)); experiment: GST pulldown, CP27 immunoblot
T1 construct: also called neurofibrillary tangles

[2] = target: T2, tau present in AD brain extracts (human, UniProt P10636-8 2-441, limits assumed, phosphorylated, pT231 among the sites (detected by CP9)); experiment: GST pulldown, CP27 immunoblot
T2 construct: also called AD-specific tau; AD tau

- binding result [1]: no binding
- binding result [2]: no binding
B1: GST (other)
chain: not shown
notes: Control protein; also called control GST
